Assay results reported in PubChem BioAssay AID493208 (National Center for Advancing Translational Sciences (NCATS), 2011).
Screen size: about 44,000 compounds; about 340 (0.77%) were called active. Inconclusive results (about 5%) are left out. Calls come from the whole dose curve; as a rule, active = well fitted inhibition curve with a large enough effect; inconclusive = small, poorly fitted or top-dose-only effect; inactive = flat fitted curve, though single readings scatter. The list shows a part of the results.

Assay: Acumen qHTS Assay for Inhibitors of the mTORC1 Signaling Pathway in MEF (Tsc2-/-, p53-/-) Cells: Sytravon;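 note: plate controls were DMSO for no effect and rapamycin for full effect; nearly all actives have a fitted effect of over 50% in size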
Conditions: phospho-rpS6 immunofluorescence/PI, 24 h; series mostly up to 38.3 µM; activity change, negative = inhibition: at the top concentration
Summary of the method: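 Read-out: phospho-S6 Alexa-488 intensity over PI intensity per well, scored as % active cells using thresholds from rapamycin (7.5 nM) and DMSO controls. Tsc2-/-, p53-/- MEFs exposed to compound for 24 h; PI cell count recorded as viability.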

Activity change, negative = inhibition, inactive:
CCCOc1ccc(C(=O)N(Cc2ccccc2Cl)C2CCS(=O)(=O)C2)cc1 (stereo not given) -2.06%, Cc1ccc(Cn2c(CNC(=O)CCc3ccccc3)nc3cccnc32)cc1 -3.07%, Cc1cccc(N2CCN(Cc3nnc(-c4ccccc4C)o3)CC2C)c1 (stereo not given) -10.7%, COC(=O)c1ccccc1NC(=O)c1cnc(Nc2ccc(OC)cc2)c2ccccc12 5.03%, CCCCOc1cccc(C(=O)N(Cc2ccc(N(C)C)cc2)C2CCS(=O)(=O)C2)c1 (stereo not given) -1.62%, O=C(Cn1cnc(S(=O)(=O)N2CCCC2)c1)Nc1cccc(Br)c1 -17.7%, Cc1cc(-c2nc3ncccc3o2)ccc1NC(=O)c1ccccc1Br -7.62%, Cc1ccc(CCNC(=O)CCCn2c(=O)c3ccccc3n(Cc3ccccc3C)c2=O)cc1 -2.07%, O=C(COc1ccc(F)cc1)NCC(c1ccc(Cl)cc1)N1CCCCC1 (stereo not given) -6.12%, COc1ccc(CCNC(=O)Cn2c(=O)n(-c3ccccc3)c(=O)c3c(C)c(C)sc32)cc1OC 0.864%, CC(=O)N1c2ccc(S(=O)(=O)N3CCCCCC3)cc2CC1C(=O)NCc1ccccc1C (stereo not given) 4.26%, CC(=O)N1CCOc2cc(S(=O)(=O)NCc3ccc(F)cc3)c(C)cc21 -1.93%, COc1ccc(-n2nc(C(=O)N3CCN(c4ccccc4OC)CC3)c3c4ccccc4n(C)c3c2=O)cc1Cl 0.385%, COc1ccccc1CNC(=O)CCCN1C(=O)CSc2c1c(C)nn2-c1ccccc1 -0.0296%, CC(C)C1N=C2c3ccccc3N=C(SCC(=O)NCc3ccc(Cl)cc3)N2C1=O (stereo not given) 0%, O=C(Nc1ccc2c(c1)CCCN2C(=O)c1cccs1)c1ccccc1 0%, O=C(Cn1c(=O)n(Cc2ccccc2)c(=O)c2sc3ccccc3c21)Nc1ccccc1F 4.84%, O=C(NC1CCCc2ccccc21)c1ccc2c(c1)sc1nc(-c3ccccc3)cn12 (stereo not given) 8.04%, COc1cccc(Oc2nc(C)nc3c2oc2ccccc23)c1 -11.3%, Cc1c(C(=O)NCc2cccc(Cl)c2)sc2nc[nH]c(=O)c12 -14.4%, CCOc1ccccc1NC(=O)C1CCN(S(=O)(=O)c2cccs2)CC1 -2.13%, CC(CNC(=O)CCc1cn(Cc2ccccc2Cl)c2ccccc12)c1ccccc1 (stereo not given) -14.4%, CCOc1ccc(NC(=O)Cn2ccn3nc(-c4ccc(OC)c(OC)c4)cc3c2=O)cc1 0%, Cc1cc(C)cc(NC(=O)Nc2ccc3nc(N4CCN(C)CC4)cc(C)c3c2)c1 3.05%, CCCS(=O)(=O)c1nc(S(=O)(=O)c2ccc(C)cc2)c(NCc2ccccc2Cl)s1 -6.28%, Cc1nc(N2CCCC2)c2c(C(=O)Nc3cccc(Cl)c3)c(C)oc2n1 1.88%, CC1(C)CC(=O)c2cc(C#N)c(=O)n(-c3ccc(Cl)cc3)c2C1 1.19%, O=C(O)CCC(=O)Nc1sc2c(c1C(=O)Nc1ccccc1)CCCCC2 6.91%, COc1ccc(NC(=O)Cn2cc(C(=O)c3ccccc3)c(=O)c3cc(OC)ccc32)c(OC)c1 2.58%, CCc1ccc(NC(=O)c2ccc(F)c(S(=O)(=O)N3CCN(c4ccc(OC)cc4)CC3)c2)cc1 -12%, Cc1ccsc1CN(C(=O)c1ccc(OCC(C)C)cc1)C1CCS(=O)(=O)C1 (stereo not given) 5.68%, CCOC(=O)c1cccc(NS(=O)(=O)c2cc(-c3cnc(C4CC4)o3)ccc2C)c1 0%, Cc1c(C(=O)OC(C)C)sc(NC(=O)C2c3ccccc3Oc3ccccc32)c1C(=O)OC(C)C -2.47%, Cc1ccc(-n2c3nc(=O)[nH]c(=O)c-3cc3c(C)nn(-c4ccccc4)c32)cc1C -0.115%, CCOC(=O)c1c(S(=O)(=O)N2CCCC(C(=O)Nc3ccc(C)cn3)C2)c(C)n(C)c1C (stereo not given) 0.543%, Cc1cccc(NC(=O)CSc2nc3ccccc3nc2N2CCOCC2)c1C -7.58%, CC(=O)c1ccc(N2CCN(C(=O)CCCCn3c(=O)[nH]c4ccsc4c3=O)CC2)cc1 -0.0571%, CCOc1ccc(CNS(=O)(=O)c2cc3c(cc2C)NC(=O)CO3)cc1 -10.6%, O=C(Nc1cccc(C(F)(F)F)c1)c1cc(-c2ccc3c(c2)OCCO3)on1 -12.6%, CCSc1nnc(NC(=O)c2cc(=O)c3cc(C)c(C)cc3o2)s1 1.19%, COc1ccc(Cn2c(=O)c3cccnc3n(CC(=O)Nc3c(C)cc(C)cc3C)c2=O)cc1 0.473%, CCc1cnc2c(c1SCC(=O)c1ccc(Cl)cc1)c(=O)n(C)c(=O)n2C 4.04%, CCOC(=O)c1c(-c2ccc(OC)cc2)oc2ccc(OCc3ccc(Br)cc3)cc12 -16.7%, O=C(NCCc1ccc(F)cc1)C(=O)NCC(c1ccco1)S(=O)(=O)c1cccs1 (stereo not given) -0.0121%, COc1ccc(S(=O)(=O)n2nc(C)c(S(=O)(=O)N3CCC(C)CC3)c2C)cc1OC 1.73%, Cc1ccc(N(CC(=O)Nc2ccc(Br)cc2)S(=O)(=O)c2cccs2)cc1 -22.4%, CCc1ccccc1NC(=O)c1ccc2nc(C(C)C)oc2c1 -9.4%, O=C(Nc1nnc2n1CCS2)c1ccccc1C(F)(F)F -1.18%, CC(C)CCNC(=O)CCC(=O)NNc1nc2ccccc2c2nc(-c3ccccc3)nn12 -4.27%, COc1cc(OC)cc(C(=O)N2CC(=O)Nc3ccc(Cl)cc3C2c2ccccc2)c1 (stereo not given) -4.02%, COc1ccc(C2=C(C)C(N3CCC(C(=O)Nc4ccc(F)cc4C)CC3)=NS2(=O)=O)cc1 -8.27%, O=C(Nc1ccc(Cl)c(C(F)(F)F)c1)C(Cc1ccccc1)NS(=O)(=O)c1ccc(Br)s1 (stereo not given) 2.64%, Brc1cccc(-c2cnn3c(-c4ccccc4)cc(-c4ccccc4)nc23)c1 8.2%, CCOc1ccc(NC(=O)C(=O)NCc2ccco2)cc1 9.1%, COc1cccc(C(=O)NCC(c2ccc3c(c2)OCO3)N2CCOCC2)c1 (stereo not given) 2.6%, O=C(NCc1ccccc1)C(=O)NCC(c1cccs1)S(=O)(=O)c1ccccc1 (stereo not given) -1.6%, CC1(C)CC(=O)c2cc(C(=O)Nc3ccccc3Cl)c(=O)n(-c3ccc(Cl)cc3)c2C1 -11.1%, COc1ccc2cc3cc(C(=O)NCc4ccccc4OC)oc3nc2c1 5.07%, Cc1cccc(N2CCN(S(=O)(=O)c3csc(C(N)=O)c3)CC2)c1C -22.5%, Cc1cccc(NC(=O)CSc2nc(-c3ccco3)cc(C(F)(F)F)n2)c1C -17.4%, Cc1ccc(-c2nc3ncccc3o2)cc1NC(=O)c1ccc(-c2ccc(Cl)cc2)o1 -1.85%, Cc1ccc(N(Cc2cccs2)C(=O)c2ccccc2Cl)cc1 -1.08%, CCOC(=O)c1ccc(NC(=O)c2cc3sccc3n2Cc2ccc(Cl)cc2)cc1 -12.3%, O=C(Nc1nnc2n1CCS2)c1ccc(F)cc1F -3.94%, O=C(c1ccccc1Cl)N1CCCCC1CCN1CCCCC1 (stereo not given) -2.83%, COc1ccc(NC(=O)C(C)N(c2ccccc2)S(C)(=O)=O)cc1 (stereo not given) -16.7%, COc1ccc(C)cc1NC(=O)Cn1c(=O)n(Cc2nc(C)no2)c(=O)c2ccccc21 -7.16%, CCOc1ccccc1NC(=O)C(CC)Sc1nc2ccncc2[nH]1 (stereo not given) -8.5%, COc1ccc(CCNC(=O)c2ccc(Cn3c(=O)c4ccccc4n(Cc4cccc(Cl)c4)c3=O)cc2)cc1OC 12.1%, CC(C)c1ccc(NS(=O)(=O)c2ccc3nc(-c4ccccc4)[nH]c3c2)cc1 -1.33%, CCOc1ccc(CN2CCc3nc(Nc4ccc5c(c4)OCCO5)ncc3C2)cc1 8.32%, Cc1nn2c(=O)cc(COC(=O)c3ccccc3NC(=O)C(C)Oc3ccccc3)nc2s1 (stereo not given) 4.53%, Cc1ccc(-n2c(=O)c3ccc(C(=O)NCc4ccco4)cc3n(Cc3ccccc3C#N)c2=O)cc1 1.06%, COc1ccc(NC(=O)c2ccc3c(c2)sc2nc(-c4ccc(OC)cc4)cn23)cc1 7.01%, Cc1ccc(NC(=O)Cn2c(=O)n(Cc3ccco3)c(=O)c3ccccc32)c(C)c1 -0.917%, CCOc1ccc(C2CC(=O)N(c3cccc(F)c3)C3=C2C(=O)OC3)cc1 (stereo not given) -1.62%, Cc1ccc(-n2nc3c(=O)n(CCCC(=O)NCCc4ccccc4Cl)nc(C)c3c2C)cc1 -0.68%, Cc1ccc(-c2cn(-c3cccc(Cl)c3)c(S(=O)(=O)CC(=O)Nc3ccccc3F)n2)cc1 -12.9%, COc1cc(C2c3c(oc4cc(C)c(C)cc4c3=O)C(=O)N2CCCN2CCOCC2)ccc1O (stereo not given) 5.19%, CCOC(=O)c1cc(S(=O)(=O)Nc2ccc(Br)c(C)c2)[nH]n1 -6.33%, Cc1ccc2c(c1)c1c(c(=O)n(-c3cccc(Cl)c3)c(=O)n1CC(=O)N1CCCC1)n2C -2.22%, Cc1c(C(=O)N2CCC(c3nc4ccccc4s3)CC2)oc2cc(Br)ccc12 -14.3%, CCCNC(=O)c1cc2nc(-c3ccc(Br)cc3)cc(C(F)(F)F)n2n1 -9.3%, CCOc1ccc(-n2c(SCc3nc(-c4ccc(OC)cc4)no3)nnc2-c2ccncc2)cc1 5.07%, COc1ccc(Br)cc1CNC(=O)c1cc(=O)[nH]c2ccc(S(=O)(=O)N3CCCC3)cc12 5.76%, CCOc1cccc2cc(-c3nc4sc5c(c4c(=O)[nH]3)CCC(C(C)(C)C)C5)c(=O)oc12 (stereo not given) -22.2%, COc1ccc(Br)cc1CNC(=O)c1cc2ccccn2n1 -4.66%, CCOc1ccccc1NC(=O)Cn1c(=O)n(CCC(C)C)c(=O)c2cccnc21 -8.39%, O=C(COC(=O)c1cc(-c2cccs2)nc2ccccc12)c1ccc(Br)cc1 0.892%, Cc1nc2ccccc2n1CCc1nc2c3ccccc3nc(SCc3cccc(F)c3)n2n1 0.512%, CC1=C(C(=O)Nc2ccccc2)C(c2ccccc2C)n2ncc(C(=O)Nc3ccccc3)c2N1 (stereo not given) -1.2%, Cc1cc(C)cc(OCCn2c(C3CC(=O)N(c4ccccc4Cl)C3)nc3ccccc32)c1 (stereo not given) 1.18%, Cc1ccc2c(=O)c(C(=O)c3ccccc3)cn(CC(=O)Nc3ccc4c(c3)OCCO4)c2n1 6.28%, CC(C)(C)c1ccc(C2Sc3ccccc3NC3=C2C(=O)c2ccccc23)cc1 (stereo not given) 3.99%, Cn1c(=O)c2sccc2n2c(CCC(=O)NCc3ccc(F)cc3)nnc12 -9.87%
